{"source": "paper PMC12820563", "note": "This is one part of the list. The list includes weakly bound sequences."}
{"molecular_target": "T1, MBP-FoxP3dN (UniProt Q99JB6)", "T1 sequence": "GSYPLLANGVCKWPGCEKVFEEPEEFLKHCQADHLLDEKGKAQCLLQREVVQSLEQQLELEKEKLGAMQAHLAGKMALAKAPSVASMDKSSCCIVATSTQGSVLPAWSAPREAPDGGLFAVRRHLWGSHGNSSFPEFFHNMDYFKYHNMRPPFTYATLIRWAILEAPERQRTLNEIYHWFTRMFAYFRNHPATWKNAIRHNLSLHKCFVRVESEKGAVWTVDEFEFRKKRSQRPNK", "test": "PD-seq (MBP pull-down with sequencing)", "conditions": "20 mM Tris-HCl pH 7.5, 100 mM NaCl, 1.5 mM MgCl2, 0.4 uM protein, 0.1 uM dsDNA library, 30 min, room temperature, amylose pull-down; high values mean tight binding; double strand, one strand shown"}
{"sequence": "GATGATTGTTCTCCCAGCTGATGAATTCCGATTGTCGAGTAAACAAATTTTCCTAATCTTTCTGTTCAAGCGCCATCTAC", "binding signal (RPM ratio (pull-down/input))": 1.93}
{"sequence": "GATGATTGTTCTCCCAGCTGATGAATTACGCCGATCGAGTAAACAAATTTTCCTAATCTTTCTGTTCAAGCGCCATCTAC", "binding signal (RPM ratio (pull-down/input))": 0.687}
{"sequence": "GATGATTGTTCTCCCAGCTGATGAATTACGAGTCTCGAGTAAACAAATTTTCCTAATCTTTCTGTTCAAGCGCCATCTAC", "binding signal (RPM ratio (pull-down/input))": 1.24}
{"sequence": "GATGATTGTTCTCCCAGCTGATGAATTTCTGCTGTCGAGTAAACAAATTTTCCTAATCTTTCTGTTCAAGCGCCATCTAC", "binding signal (RPM ratio (pull-down/input))": 0.378}
{"sequence": "GATGATTGTTCTCCCAGCTGATGAATTAAGTTGTTCGAGTAAACAAATTTTCCTAATCTTTCTGTTCAAGCGCCATCTAC", "binding signal (RPM ratio (pull-down/input))": 4.89}
{"sequence": "GATGATTGTTCTCCCAGCTGATGAATTCCGGAGATCGAGTAAACAAATTTTCCTAATCTTTCTGTTCAAGCGCCATCTAC", "binding signal (RPM ratio (pull-down/input))": 0.241}
{"sequence": "GATGATTGTTCTCCCAGCTGATGAATTACCGACCTCGAGTAAACAAATTTTCCTAATCTTTCTGTTCAAGCGCCATCTAC", "binding signal (RPM ratio (pull-down/input))": 0.301}
{"sequence": "GATGATTGTTCTCCCAGCTGATGAATTTTTAAAATCGAGTAAACAAATTTTCCTAATCTTTCTGTTCAAGCGCCATCTAC", "binding signal (RPM ratio (pull-down/input))": 0.24}
{"sequence": "GATGATTGTTCTCCCAGCTGATGAATTGCGCCATTCGAGTAAACAAATTTTCCTAATCTTTCTGTTCAAGCGCCATCTAC", "binding signal (RPM ratio (pull-down/input))": 6.51}
{"sequence": "GATGATTGTTCTCCCAGCTGATGAATTAAAGAAATCGAGTAAACAAATTTTCCTAATCTTTCTGTTCAAGCGCCATCTAC", "binding signal (RPM ratio (pull-down/input))": 0.264}
{"sequence": "GATGATTGTTCTCCCAGCTGATGAATTCAACTGCTCGAGTAAACAAATTTTCCTAATCTTTCTGTTCAAGCGCCATCTAC", "binding signal (RPM ratio (pull-down/input))": 0.33}
{"sequence": "GATGATTGTTCTCCCAGCTGATGAATTCACGACATCGAGTAAACAAATTTTCCTAATCTTTCTGTTCAAGCGCCATCTAC", "binding signal (RPM ratio (pull-down/input))": 0.488}
{"sequence": "GATGATTGTTCTCCCAGCTGATGAATTTGCATAATCGAGTAAACAAATTTTCCTAATCTTTCTGTTCAAGCGCCATCTAC", "binding signal (RPM ratio (pull-down/input))": 1.36}
{"sequence": "GATGATTGTTCTCCCAGCTGATGAATTTACGAACTCGAGTAAACAAATTTTCCTAATCTTTCTGTTCAAGCGCCATCTAC", "binding signal (RPM ratio (pull-down/input))": 0.335}
{"sequence": "GATGATTGTTCTCCCAGCTGATGAATTAGCCGTGTCGAGTAAACAAATTTTCCTAATCTTTCTGTTCAAGCGCCATCTAC", "binding signal (RPM ratio (pull-down/input))": 0.436}
{"sequence": "GATGATTGTTCTCCCAGCTGATGAATTTAGCGGATCGAGTAAACAAATTTTCCTAATCTTTCTGTTCAAGCGCCATCTAC", "binding signal (RPM ratio (pull-down/input))": 0.292}
{"sequence": "GATGATTGTTCTCCCAGCTGATGAATTCGAGATTTCGAGTAAACAAATTTTCCTAATCTTTCTGTTCAAGCGCCATCTAC", "binding signal (RPM ratio (pull-down/input))": 0.339}
{"sequence": "GATGATTGTTCTCCCAGCTGATGAATTCTTCGTTTCGAGTAAACAAATTTTCCTAATCTTTCTGTTCAAGCGCCATCTAC", "binding signal (RPM ratio (pull-down/input))": 0.329}
{"sequence": "GATGATTGTTCTCCCAGCTGATGAATTTGCCAACTCGAGTAAACAAATTTTCCTAATCTTTCTGTTCAAGCGCCATCTAC", "binding signal (RPM ratio (pull-down/input))": 0.47}
{"sequence": "GATGATTGTTCTCCCAGCTGATGAATTCTAGGATTCGAGTAAACAAATTTTCCTAATCTTTCTGTTCAAGCGCCATCTAC", "binding signal (RPM ratio (pull-down/input))": 0.262}
{"sequence": "GATGATTGTTCTCCCAGCTGATGAATTCAGGGCTTCGAGTAAACAAATTTTCCTAATCTTTCTGTTCAAGCGCCATCTAC", "binding signal (RPM ratio (pull-down/input))": 0.387}
{"sequence": "GATGATTGTTCTCCCAGCTGATGAATTGGAGACGTCGAGTAAACAAATTTTCCTAATCTTTCTGTTCAAGCGCCATCTAC", "binding signal (RPM ratio (pull-down/input))": 0.273}
{"sequence": "GATGATTGTTCTCCCAGCTGATGAATTGCATGACTCGAGTAAACAAATTTTCCTAATCTTTCTGTTCAAGCGCCATCTAC", "binding signal (RPM ratio (pull-down/input))": 0.831}
{"sequence": "GATGATTGTTCTCCCAGCTGATGAATTCGCAAAATCGAGTAAACAAATTTTCCTAATCTTTCTGTTCAAGCGCCATCTAC", "binding signal (RPM ratio (pull-down/input))": 0.228}
{"sequence": "GATGATTGTTCTCCCAGCTGATGAATTTGTGACTTCGAGTAAACAAATTTTCCTAATCTTTCTGTTCAAGCGCCATCTAC", "binding signal (RPM ratio (pull-down/input))": 1.88}
{"sequence": "GATGATTGTTCTCCCAGCTGATGAATTATGAGGATCGAGTAAACAAATTTTCCTAATCTTTCTGTTCAAGCGCCATCTAC", "binding signal (RPM ratio (pull-down/input))": 0.385}
{"sequence": "GATGATTGTTCTCCCAGCTGATGAATTAATTACGTCGAGTAAACAAATTTTCCTAATCTTTCTGTTCAAGCGCCATCTAC", "binding signal (RPM ratio (pull-down/input))": 0.77}
{"sequence": "GATGATTGTTCTCCCAGCTGATGAATTTGGCACGTCGAGTAAACAAATTTTCCTAATCTTTCTGTTCAAGCGCCATCTAC", "binding signal (RPM ratio (pull-down/input))": 1.37}
{"sequence": "GATGATTGTTCTCCCAGCTGATGAATTGACAACGTCGAGTAAACAAATTTTCCTAATCTTTCTGTTCAAGCGCCATCTAC", "binding signal (RPM ratio (pull-down/input))": 0.517}
{"sequence": "GATGATTGTTCTCCCAGCTGATGAATTACCAACGTCGAGTAAACAAATTTTCCTAATCTTTCTGTTCAAGCGCCATCTAC", "binding signal (RPM ratio (pull-down/input))": 0.44}
{"sequence": "GATGATTGTTCTCCCAGCTGATGAATTATAAGTTTCGAGTAAACAAATTTTCCTAATCTTTCTGTTCAAGCGCCATCTAC", "binding signal (RPM ratio (pull-down/input))": 0.489}
{"sequence": "GATGATTGTTCTCCCAGCTGATGAATTCTCTATGTCGAGTAAACAAATTTTCCTAATCTTTCTGTTCAAGCGCCATCTAC", "binding signal (RPM ratio (pull-down/input))": 0.308}
